System: dissociated dorsal root ganglion (DRG) neurons
Format: cell-based, mice
Details: 50 μM

Structure (SMILES): CCCCCC[C@H](O)c1oc(OC)c(C)c(=O)c1C [compound 3]
- activity in the calcium-imaging assay: inactive
